Measured values published in the supplement of paper PMC9446081.
The campaign covered roughly 39,000 compounds. About 220 (0.56%) showed activity. The list shows a part of the results.
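Note: static incubation at 37 °C against the wild-type strain, values averaged over two biological replicates.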

These molecules were tested on Escherichia coli K-12 BW25113 (assay: relative growth (OD600 normalised to plate interquartile mean) (fraction); higher = less growth inhibition, active = 0.2 or less). Conditions: 50 µM; LB; incubation time: overnight (16-24 h).
O=C(Nc1cccc2cccnc12)[C@@H]1[C@H](c2ccc(Br)cc2)CN1C(=O)OCc1ccc([N+](=O)[O-])cc1 was tested, and the relative growth was inactive: 1.04. For CC(=N)NCCCC[C@H](N)C(=O)O, the relative growth was inactive: 0.988. In the case of C[C@@H]1CN([C@@H](C)CO)S(=O)(=O)c2ccc(-c3ccncc3)cc2O[C@H]1CN(C)S(=O)(=O)c1ccccc1F, the relative growth is reported as inactive: 0.975. With C[C@@H]1CN([C@@H](C)CO)C(=O)c2cccc(NC(=O)CCCCCC(=O)Nc3ccccc3N)c2O[C@H]1CN(C)Cc1ccc(Cl)c(Cl)c1 the relative growth was inactive: 0.997. With COc1ccc(NC(=O)Nc2ccc3c(c2)CC(=O)N([C@@H](C)CO)C[C@H](C)[C@@H](CN(C)Cc2ccc(-c4ccccc4)cc2)O3)cc1 the relative growth was inactive: 0.966. Cc1noc(C)c1S(=O)(=O)N(C)C[C@H]1OCc2cnnn2CCCC(=O)N([C@H](C)CO)C[C@@H]1C was tested, and the relative growth was inactive: 1. C[C@H](CO)N1C[C@H](C)[C@@H](CN(C)Cc2ccc(Oc3ccccc3)cc2)Oc2ccc(NC(=O)Nc3ccc(F)cc3)cc2C1=O was tested, and the relative growth was inactive: 0.964. For C[C@H](CO)N1C[C@H](C)[C@H](CN(C)C(=O)CN2CCOCC2)Oc2cc(/C=C/c3ccccc3)ccc2S1(=O)=O, the relative growth was inactive: 0.986. For O=C(C[C@H]1CC[C@H]2[C@@H](COC[C@H](O)CN2C(=O)Nc2ccc3c(c2)OCO3)O1)N1CCN(c2ccccc2)CC1, the relative growth was inactive: 0.991. In the case of C[C@H](CO)N1C[C@H](C)[C@H](CN(C)S(=O)(=O)c2cn(C)cn2)OCCCC[C@H](C)Oc2ccc(NC(=O)CCCN(C)C)cc2C1=O, the relative growth is reported as inactive: 0.983. With CN1C(=O)c2cc(NC(=O)C3CCOCC3)ccc2OC[C@@H]2O[C@H](CC(=O)NCc3ccccc3F)CC[C@H]21 the relative growth was inactive: 0.995. In the case of Cc1ccc(S(=O)(=O)N(C)C[C@@H]2OCCCC[C@H](C)Oc3ccc(NS(C)(=O)=O)cc3C(=O)N([C@H](C)CO)C[C@@H]2C)cc1, the relative growth is reported as inactive: 1.04. In the case of Cc1ccc(C2(CN3CCN4C(=O)CN(C)C(=O)[C@H]4C3)CCNCC2)nc1, the relative growth is reported as inactive: 1.02. C[C@@H]1CCCCO[C@H](CN(C)Cc2ccc(C(F)(F)F)cc2)[C@H](C)CN([C@@H](C)CO)C(=O)c2cc(NC(=O)C3CCCCC3)ccc2O1 was tested, and the relative growth was inactive: 0.98. With C[C@@H]1CN([C@H](C)CO)C(=O)c2cc(NC(=O)Nc3ccc(C(F)(F)F)cc3)ccc2O[C@@H](C)CCCCO[C@H]1CN(C)S(=O)(=O)c1cn(C)cn1 the relative growth was inactive: 0.979. In the case of O=C(OCc1ccco1)c1ccc(-c2ccc(Cl)cc2)s1, the relative growth is reported as inactive: 1.02. In the case of C=C1c2cccc(O)c2C(=O)[C@@H]2C(=O)[C@]3(O)C(=O)[C@@H](C(N)=O)C(=O)[C@@H](N(C)C)[C@@H]3[C@@H](O)[C@H]12, the relative growth is reported as active: 0.0752. For COc1cc(CO)cc(I)c1O[C@H]1C=C(C(=O)NCCO)C[C@@H](NCc2ccccc2F)[C@@H]1O, the relative growth was inactive: 0.996. N[C@@H](c1ccncc1)c1ccc(Cl)cc1 was tested, and the relative growth was inactive: 1. CNC(=O)C[C@H]1CC[C@H]2[C@@H](COC[C@H](O)CN2C(=O)Nc2cccc(OC)c2)O1 was tested, and the relative growth was inactive: 0.954. For O=C(C[C@H]1CC[C@@H]2[C@H](COC[C@@H](O)CN2S(=O)(=O)c2ccc(Cl)cc2)O1)N[C@@H]1CCN(Cc2ccccc2)C1, the relative growth was inactive: 0.98. For O=C(C[C@@H]1CC[C@H]2[C@@H](COC[C@H](O)CN2C(=O)c2ccncc2)O1)NC1CCC1, the relative growth was inactive: 0.986. COc1ccc(S(=O)(=O)Nc2ccc3c(c2)C(=O)N([C@H](C)CO)C[C@H](C)[C@H](CN(C)S(=O)(=O)c2c(C)noc2C)O3)cc1 was tested, and the relative growth was inactive: 0.99. In the case of COc1ccccc1CNC(=O)C[C@@H]1C[C@@H]2c3cc(NC(=O)c4cccnc4)ccc3O[C@@H]2[C@H](CO)O1, the relative growth is reported as inactive: 0.963. C[C@H](CO)N1C[C@H](C)[C@H](CN(C)Cc2ccc3c(c2)OCO3)OCCCC[C@H](C)Oc2ccc(NS(=O)(=O)c3cccs3)cc2C1=O was tested, and the relative growth was inactive: 1.02. In the case of Cc1ccc(S(=O)(=O)Nc2ccc3c(c2)CC(=O)N([C@H](C)CO)C[C@@H](C)[C@@H](CN(C)S(=O)(=O)c2c(C)noc2C)O3)cc1, the relative growth is reported as inactive: 1.01. COc1ccc(S(=O)(=O)Nc2ccc3c(c2)CC(=O)N([C@@H](C)CO)C[C@H](C)[C@H](CN(C)S(=O)(=O)c2ccc(OC)cc2)O3)cc1 was tested, and the relative growth was inactive: 0.999. With Nc1ccc(/C=C/c2ccccc2)cc1 the relative growth was inactive: 0.999. With COc1ccc(NC(=O)N(C)C[C@@H]2OCCCC[C@@H](C)Oc3ccc(NC(=O)CCC(F)(F)F)cc3C(=O)N([C@H](C)CO)C[C@@H]2C)cc1 the relative growth was inactive: 1.02. For O=C1O[C@H](c2ccccc2)[C@H](c2ccccc2)N2[C@H]1[C@@H](C(=O)O)[C@]1(C(=O)Nc3ccc(C#CC4(O)CCCCCC4)cc31)[C@H]2c1ccc(OCCO)cc1, the relative growth was inactive: 0.983. For C[C@H]1CN([C@@H](C)CO)C(=O)c2cc(NS(=O)(=O)c3ccccc3)ccc2O[C@@H]1CN(C)Cc1ccc(-c2ccccc2)cc1, the relative growth was inactive: 0.96. C=CCOC(=O)[C@@H]1[C@H]2C(=O)O[C@H](c3ccccc3)[C@H](c3ccccc3)N2[C@H](c2ccc(OCCOC(=O)[C@H]3C[C@H]4C(=O)N[C@@H](CCCCNC(C)=O)C(=O)N4[C@H]3c3ccc(O)cc3)cc2)[C@@]12C(=O)Nc1ccc(I)cc12 was tested, and the relative growth was inactive: 1.07. With COCC#Cc1cnc2c(c1)C(=O)N([C@@H](C)CO)C[C@H](C)[C@H](CN(C)C(=O)Nc1cc(F)ccc1F)O2 the relative growth was inactive: 0.996. In the case of C[C@H]1CN([C@@H](C)CO)C(=O)c2cc(NS(=O)(=O)c3ccc(Cl)cc3)ccc2O[C@@H]1CN(C)C(=O)Nc1ccc(C(F)(F)F)cc1, the relative growth is reported as inactive: 0.991. C[C@H]1CN([C@@H](C)CO)C(=O)Cc2cc(NC(=O)Cn3cnnn3)ccc2O[C@H]1CN(C)C(=O)Nc1ccccc1 was tested, and the relative growth was inactive: 0.985. In the case of C[C@@H]1CN([C@@H](C)CO)C(=O)c2cc(NC(=O)NC3CCCCC3)ccc2O[C@@H](C)CCCCO[C@H]1CN(C)S(=O)(=O)c1cccs1, the relative growth is reported as inactive: 1.02. With O=C1O[C@H](c2ccccc2)[C@H](c2ccccc2)N2[C@H]1[C@@H](C(=O)N1CCCCCCC1)[C@]1(C(=O)Nc3ccc(C#CC4=CCCCC4)cc31)[C@H]2c1ccc(O)cc1 the relative growth was inactive: 1.03. C[C@H](CO)N1C[C@H](C)[C@H](CN(C)Cc2ccc(C(F)(F)F)cc2)OCc2ccccc2-c2ccccc2C1=O was tested, and the relative growth was inactive: 0.99. With Cc1ccc(S(=O)(=O)Nc2ccc3c(c2)C(=O)N([C@H](C)CO)C[C@H](C)[C@@H](CN(C)C(=O)C2CCCCC2)OCCCC[C@@H](C)O3)cc1 the relative growth was inactive: 1.02. For C[C@H]1CCCCO[C@@H](CN(C)S(=O)(=O)c2ccc(F)cc2)[C@@H](C)CN([C@@H](C)CO)C(=O)c2cc(NC(=O)NC3CCCCC3)ccc2O1, the relative growth was inactive: 1.01. With C[C@H](CO)N1C[C@H](C)[C@@H](CN(C)S(=O)(=O)c2cn(C)cn2)OCc2cnnn2CCCC1=O the relative growth was inactive: 0.998. With C[C@H]1CN([C@@H](C)CO)C(=O)Cc2cc(NS(=O)(=O)c3ccccc3)ccc2O[C@H]1CN(C)S(=O)(=O)c1ccccc1 the relative growth was inactive: 1.02. With COc1ccc(NC(=O)N(C)C[C@@H]2OCCCC[C@@H](C)Oc3ccc(NC(=O)NC4CCCCC4)cc3C(=O)N([C@@H](C)CO)C[C@@H]2C)cc1 the relative growth was inactive: 1. In the case of C[C@@H]1CN([C@H](C)CO)C(=O)c2cc(NC(=O)Nc3cccc4ccccc34)ccc2O[C@H]1CN(C)C(=O)Nc1ccc(F)cc1, the relative growth is reported as inactive: 1.01. For CC(C)NC(=O)Nc1ccc2c(c1)CC(=O)N([C@H](C)CO)C[C@@H](C)[C@@H](CN(C)C(=O)Nc1ccc3c(c1)OCO3)O2, the relative growth was inactive: 0.98. With O=C(C[C@@H]1CC[C@@H]2[C@H](COC[C@@H](O)CN2S(=O)(=O)c2cccc(F)c2)O1)NCCCN1CCOCC1 the relative growth was inactive: 0.996. CN(C)Cc1cn(CC[C@@H]2CC[C@H](N)[C@H](CO)O2)nn1 was tested, and the relative growth was inactive: 0.991. CNC[C@@H]1OCCCC[C@H](C)Oc2ccc(NC(=O)Nc3ccc(C(F)(F)F)cc3)cc2C(=O)N([C@H](C)CO)C[C@@H]1C was tested, and the relative growth was inactive: 0.832. In the case of C[C@H]1CN([C@@H](C)CO)C(=O)c2cc(NC(=O)Cn3cnnn3)ccc2O[C@H]1CN(C)Cc1ccc(C(=O)Nc2ccccc2N)cc1, the relative growth is reported as inactive: 1. With C[C@@H]1CN([C@@H](C)CO)C(=O)c2cc(NC(=O)Nc3ccc(C(F)(F)F)cc3)ccc2O[C@@H]1CN(C)C(=O)Nc1ccc(F)cc1 the relative growth was inactive: 1.01. For C[C@H]1CN([C@@H](C)CO)C(=O)c2cccc(NS(=O)(=O)c3cccs3)c2O[C@H]1CN(C)Cc1ccc(Cl)c(Cl)c1, the relative growth was inactive: 1.01. C[C@@H]1CCCCO[C@@H](CN(C)C(=O)Nc2ccc(F)cc2)[C@@H](C)CN([C@H](C)CO)C(=O)c2cc(NC(=O)Cc3ccccc3)ccc2O1 was tested, and the relative growth was inactive: 0.996. With C[C@@H]1CN([C@H](C)CO)C(=O)c2cccc(NC(=O)c3ccno3)c2O[C@H]1CN(C)S(=O)(=O)c1cccs1 the relative growth was inactive: 0.991. C[C@@H]1CN([C@@H](C)CO)C(=O)c2cc(NC(=O)CCCN(C)C)ccc2O[C@@H](C)CCCCO[C@@H]1CN(C)S(C)(=O)=O was tested, and the relative growth was inactive: 1.03. In the case of Cc1noc(C)c1S(=O)(=O)Nc1ccc2c(c1)C(=O)N([C@H](C)CO)C[C@@H](C)[C@@H](CN(C)Cc1ccccc1)OCCCC[C@@H](C)O2, the relative growth is reported as inactive: 1.01. In the case of Cc1noc(C)c1S(=O)(=O)N(C)C[C@H]1Oc2ccc(NS(=O)(=O)c3ccc(Cl)cc3)cc2CC(=O)N([C@@H](C)CO)C[C@@H]1C, the relative growth is reported as inactive: 0.954.
